Source: the supplement of paper PMC8728848
The list shows a part of the results.

Key:
Test in all cases: glycan array binding signal (z-score within array); higher = stronger binding
Conditions in all cases: glycan notation: IUPAC condensed, linker removed
[1] = biological target: Gal(a1-3)Gal(b1-3)GlcNAc
How it was run: (§1)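 The binding signal is a Z-score computed within each array and averaged over linkers. Arrays of the same protein sequence at different concentrations or buffers were also averaged together. Data originate from 3228 arrays in the Consortium for Functional Glycomics database, kept only where the protein sequence was available.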

[2] = biological target: Gal(a1-3)Gal(b1-3)GlcNAc(b1-2)Man
How it was run: as §1

[3] = biological target: Gal(a1-3)Gal(b1-3)GlcNAc(b1-2)Man(a1-3)[Gal(a1-3)Gal(b1-3)GlcNAc(b1-2)Man(a1-6)]Man(b1-4)GlcNAc(b1-4)GlcNAc
How it was run: as §1

[4] = biological target: Gal(a1-3)Gal(b1-3)GlcNAc(b1-3)GalNAc
How it was run: as §1

[5] = biological target: Gal(a1-3)Gal(b1-3)GlcNAc(b1-6)GalNAc
How it was run: as §1

[6] = biological target: Gal(a1-3)Gal(b1-3)[Fuc(a1-4)]GlcNAc(b1-2)Man(a1-3)[Gal(a1-3)Gal(b1-3)[Fuc(a1-4)]GlcNAc(b1-2)Man(a1-6)]Man(b1-4)GlcNAc(b1-4)GlcNAc
How it was run: as §1

[7] = biological target: Gal(a1-3)Gal(b1-4)Glc
How it was run: as §1

[8] = biological target: Gal(a1-3)Gal(b1-4)GlcNAc
How it was run: as §1

[9] = biological target: Gal(a1-3)Gal(b1-4)GlcNAc(b1-2)Man
How it was run: as §1

[10] = biological target: Gal(a1-3)Gal(b1-4)GlcNAc(b1-2)Man(a1-3)[Gal(a1-3)Gal(b1-4)GlcNAc(b1-2)Man(a1-6)]Man(b1-4)GlcNAc(b1-4)GlcNAc
How it was run: as §1

[11] = biological target: Gal(a1-3)Gal(b1-4)GlcNAc(b1-3)GalNAc
How it was run: as §1

[12] = biological target: Gal(a1-3)Gal(b1-4)GlcNAc(b1-6)GalNAc
How it was run: as §1

[13] = biological target: Gal(a1-3)Gal(b1-4)[Fuc(a1-3)]GlcNAc
How it was run: as §1

[14] = biological target: Gal(a1-3)Gal(b1-4)[Fuc(a1-3)]GlcNAc(b1-2)Man(a1-3)[Gal(a1-3)Gal(b1-4)[Fuc(a1-3)]GlcNAc(b1-2)Man(a1-6)]Man(b1-4)GlcNAc(b1-4)GlcNAc
How it was run: as §1

[15] = biological target: Gal(a1-3)GalNAc
How it was run: as §1

[16] = biological target: Gal(a1-3)[Gal(a1-4)]Gal(b1-4)GlcNAc
How it was run: as §1

[17] = biological target: Gal(a1-4)Gal(b1-3)GlcNAc(b1-2)Man(a1-3)[Gal(a1-4)Gal(b1-3)GlcNAc(b1-2)Man(a1-6)]Man(b1-4)GlcNAc(b1-4)GlcNAc
How it was run: as §1

[18] = biological target: Gal(a1-4)Gal(b1-4)Glc
How it was run: as §1

[19] = biological target: Gal(a1-4)Gal(b1-4)GlcNAc
How it was run: as §1

[20] = biological target: Gal(a1-4)Gal(b1-4)GlcNAc(b1-2)Man(a1-3)[Gal(a1-4)Gal(b1-4)GlcNAc(b1-2)Man(a1-6)]Man(b1-4)GlcNAc(b1-4)GlcNAc
How it was run: as §1

[21] = biological target: Gal(a1-4)Gal(b1-4)GlcNAc(b1-3)Gal(b1-4)Glc
How it was run: as §1

[22] = biological target: Gal(a1-4)GlcNAc
How it was run: as §1

[23] = biological target: Gal(a1-6)Glc
How it was run: as §1

[24] = biological target: Gal(b1-2)Gal
How it was run: as §1

[25] = biological target: Gal(b1-3)Gal
How it was run: as §1

[26] = biological target: Gal(b1-3)Gal(b1-4)GlcNAc
How it was run: as §1

[27] = biological target: Gal(b1-3)Gal(b1-4)GlcNAc(b1-2)Man(a1-3)[Gal(b1-3)Gal(b1-4)GlcNAc(b1-2)Man(a1-6)]Man(b1-4)GlcNAc(b1-4)GlcNAc
How it was run: as §1

[28] = biological target: Gal(b1-3)GalNAc
How it was run: as §1

[29] = biological target: Gal(b1-3)GalNAc(a1-3)[Fuc(a1-2)]Gal(b1-4)Glc
How it was run: as §1

[30] = biological target: Gal(b1-3)GalNAc(a1-3)[Fuc(a1-2)]Gal(b1-4)GlcNAc
How it was run: as §1

[31] = biological target: Gal(b1-3)GalNAc(b1-3)Gal
How it was run: as §1

[32] = biological target: Gal(b1-3)GalNAc(b1-3)Gal(a1-4)Gal(b1-4)Glc
How it was run: as §1

[33] = biological target: Gal(b1-3)GalNAc(b1-4)Gal(b1-4)Glc
How it was run: as §1

[34] = biological target: Gal(b1-3)GalNAc(b1-4)[Neu5Ac(a2-3)]Gal(b1-4)Glc
How it was run: as §1

[35] = biological target: Gal(b1-3)GlcNAc
How it was run: as §1

[36] = biological target: Gal(b1-3)GlcNAc(a1-3)Gal(b1-4)GlcNAc
How it was run: as §1

[37] = biological target: Gal(b1-3)GlcNAc(a1-6)Gal(b1-4)GlcNAc
How it was run: as §1

[38] = biological target: Gal(b1-3)GlcNAc(b1-2)Man
How it was run: as §1

[39] = biological target: Gal(b1-3)GlcNAc(b1-2)Man(a1-3)[Gal(b1-3)GlcNAc(b1-2)Man(a1-6)]Man(b1-4)GlcNAc(b1-4)GlcNAc
How it was run: as §1

[40] = biological target: Gal(b1-3)GlcNAc(b1-2)Man(a1-3)[Gal(b1-3)GlcNAc(b1-2)Man(a1-6)]Man(b1-4)GlcNAc(b1-4)[Fuc(a1-6)]GlcNAc
How it was run: as §1

[41] = biological target: Gal(b1-3)GlcNAc(b1-2)Man(a1-3)[GlcNAc(b1-4)][Gal(b1-3)GlcNAc(b1-2)Man(a1-6)]Man(b1-4)GlcNAc(b1-4)GlcNAc
How it was run: as §1

[42] = biological target: Gal(b1-3)GlcNAc(b1-2)[Gal(b1-3)GlcNAc(b1-6)]Man(a1-6)[Gal(b1-3)GlcNAc(b1-2)Man(a1-3)]Man(b1-4)GlcNAc(b1-4)GlcNAc
How it was run: as §1

[43] = biological target: Gal(b1-3)GlcNAc(b1-3)Gal(b1-3)GlcNAc
How it was run: as §1

[44] = biological target: Gal(b1-3)GlcNAc(b1-3)Gal(b1-4)Glc
How it was run: as §1

[45] = biological target: Gal(b1-3)GlcNAc(b1-3)Gal(b1-4)GlcNAc
How it was run: as §1

B1: PpFlo1 (Pichia pastoris) (protein)
chain: MGSSHHHHHHSSGLVPRGSHMQESGDGDISDSAYACDIDATRYDGFNATIYEFQPGDGRLTRDPVFMSTGYLNRTQLHSITGVTDPGFSIYTPGVPTTTLYGIPNVNWENLLLELKGYFRAEVSGDYGLSLRNIDDSAILFFGKETAFQCCNENSISNEASTDYSLFTIFRQEGDETTNLDSFTYTQYLEAGKYYPVRTFFVNIERHAVFNFTMTLPDGTELTDFHNYIYQFGALDEEQCQA
- glycan array binding signal (z-score) [1]: -0.234
- glycan array binding signal (z-score) [2]: -0.134
- glycan array binding signal (z-score) [3]: 0.536
- glycan array binding signal (z-score) [4]: 0.05
- glycan array binding signal (z-score) [5]: 0.288
- glycan array binding signal (z-score) [6]: -0.327
- glycan array binding signal (z-score) [7]: -0.504
- glycan array binding signal (z-score) [8]: 0.42
- glycan array binding signal (z-score) [9]: -0.266
- glycan array binding signal (z-score) [10]: -0.305
- glycan array binding signal (z-score) [11]: -0.082
- glycan array binding signal (z-score) [12]: 0.364
- glycan array binding signal (z-score) [13]: 1.04
- glycan array binding signal (z-score) [14]: -0.332
- glycan array binding signal (z-score) [15]: -0.319
- glycan array binding signal (z-score) [16]: 1.19
- glycan array binding signal (z-score) [17]: 0.024
- glycan array binding signal (z-score) [18]: -0.127
- glycan array binding signal (z-score) [19]: -0.164
- glycan array binding signal (z-score) [20]: -0.058
- glycan array binding signal (z-score) [21]: -0.25
- glycan array binding signal (z-score) [22]: -0.067
- glycan array binding signal (z-score) [23]: -0.08
- glycan array binding signal (z-score) [24]: -0.47
- glycan array binding signal (z-score) [25]: 0.345
- glycan array binding signal (z-score) [26]: -0.114
- glycan array binding signal (z-score) [27]: 0.695
- glycan array binding signal (z-score) [28]: 0.094
- glycan array binding signal (z-score) [29]: -0.55
- glycan array binding signal (z-score) [30]: -0.423
- glycan array binding signal (z-score) [31]: -0.245
- glycan array binding signal (z-score) [32]: -0.321
- glycan array binding signal (z-score) [33]: 3.27
- glycan array binding signal (z-score) [34]: -0.012
- glycan array binding signal (z-score) [35]: -0.262
- glycan array binding signal (z-score) [36]: -0.388
- glycan array binding signal (z-score) [37]: -0.44
- glycan array binding signal (z-score) [38]: -0.574
- glycan array binding signal (z-score) [39]: -0.158
- glycan array binding signal (z-score) [40]: 0.388
- glycan array binding signal (z-score) [41]: 0.713
- glycan array binding signal (z-score) [42]: 0.162
- glycan array binding signal (z-score) [43]: -0.344
- glycan array binding signal (z-score) [44]: -0.547
- glycan array binding signal (z-score) [45]: -0.245
